Our source for the T/C values is PubChem BioAssay AID248 (DTP/NCI, 2004).

Structures are written as SMILES. Inconclusive results and toxic doses are left out. Not every entry of the source has a single result; some have several. The list is limited to them. An entry can have further records. Values given together differ, and nothing given here explains why; some may be repeats, others may stem from another dose, organism or construct than stated.

For this assay, the system named is L1210 leukemia ip in BDF1 mice, survival T/C. The assay is described as follows: NCI In Vivo Anticancer Drug Screen. Data for tumor model L1210 Leukemia (intraperitoneal) in B6D2F1 (BDF1) mice. The settings on record: endpoint: mean survival time, schedule: Q01DX001 (ip), vehicle: saline, higher = longer survival.

On to `O=C1N[C@@H]([C@H]2CC[C@H](Cl)CN2)C(=O)N[C@H]1[C@H]1CC[C@H](Cl)CN1`, for which the T/C by setting is: (dose: 2.0 mg/kg/injection) 100 % of control and 171 % of control; (dose: 4.0 mg/kg/injection) 101 % of control and 163 % of control; (dose: 8.0 mg/kg/injection) 107 % of control and 442 % of control.
